According to the supplement of paper PMC12217912:
This is one part of the list. Sequences were assembled here from the parent chain. Inactive controls read about 0.05.

B1: TEV protease; numbered along this chain (parent)
chain: MGESLFKGPRDYNPISSSICHLTNESDGHTTSLYGIGFGPFIITNKHLFRRNNGTLVVQSLHGVFKVKDTTTLQQHLVDGRDMIIIRMPKDFPPFPQKLKFREPQREERICLVTTNFQTKSMSSMVSDTSCTFPSGDGIFWKHWIQTKDGQCGSPLVSTRDGFIVGIHSASNFTNTNNYFTSVPKNFMELLTNQEAQQWVSGWRLNADSVLWGGHKVFMVKPEEPFQPVKEATQL

Variants of: B1
Experiment: raw area under fraction-flipped curve 0-4 h after induction (AUC4h, not background-subtracted), DNA-recorder readout of cleavage of the substrate (dimensionless); higher = more cleavage of the substrate by the protease variant
Settings: temperature: 34 °C; time window: 0-4 h after rhamnose induction
Method: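 In vivo DNA recorder in E. coli TOP10(DE3) ΔrhaA at 34 °C. Each TEVp single-site mutant (parent TEVp 0) is paired with a single-site variant of the 7-mer TEVs (canonical ENLYFQ|S). The substrate sits between flexible linkers in a Bxb1-sfGFP-TEVs-SsrA fusion, so cleavage stabilises Bxb1 and speeds flipping of a recombination array, read by NGS. The value is the raw area under the fraction-flipped curve over 0-4 h after rhamnose induction (AUC4h), with ≥20 reads per time point. It is not background-subtracted; inactive controls average about 0.047.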
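Further: Bxb1 expression induced with 0.2% (w/v) L-rhamnose at OD600 near 0.5, cultures sampled hourly, flipped fraction per protease–substrate barcode pair counted by paired-end Illumina sequencing.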

Row | Variant | area with substrate ENLAFQS | area with substrate ENLCFQS | area with substrate ENLDFQS | area with substrate ENLEFQS | area with substrate ENLFFQS | area with substrate ENLIFQS | area with substrate ENLKFQS | area with substrate ENLNFQS | area with substrate ENLSFQS | area with substrate ENLWFQS | area with substrate ENLGFQS | area with substrate ENLHFQS | area with substrate ENLMFQS | area with substrate ENLPFQS | area with substrate ENLRFQS | area with substrate ENLVFQS | area with substrate ENLLFQS | area with substrate ENLQFQS
1 | MGESLFKGPRDYNPISSSICHLTNESDGHTTSLYGIGFGPFIITNKHLFRRNNGTLVVQSLHGVFKVKDTTTLQQHLVDGRDMIIIRMPFDFPPFPQKLKFREPQREERICLVTTNFQTKSMSSMVSDTSCTFPSGDGIFWKHWIQTKDGQCGSPLVSTRDGFIVGIHSASNFTNTNNYFTSVPKNFMELLTNQEAQQWVSGWRLNADSVLWGGHKVFMVKPEEPFQPVKEATQL [K90F] | 0.0682 | 0.0539 | 0.0475 | 0.0911 | 0.0797 | 0.0944 | 0.0957 | 0.0691 | 0.0788 | 0.0584 | – | – | – | – | – | – | – | –
2 | MGESLFKGPRDYNPISSSICHLTNESDGHTTSLYGIGFGPFIITNKHLFRRNNGTLVVQSLHGVFKVKDTTTLQQHLVDGRDMICIRMPKDFPPFPQKLKFREPQREERICLVTTNFQTKSMSSMVSDTSCTFPSGDGIFWKHWIQTKDGQCGSPLVSTRDGFIVGIHSASNFTNTNNYFTSVPKNFMELLTNQEAQQWVSGWRLNADSVLWGGHKVFMVKPEEPFQPVKEATQL [I85C] | 0.0298 | – | 0.0582 | 0.0564 | 0.068 | – | 0.102 | 0.0534 | 0.0574 | 0.0548 | 0.0611 | 0.0326 | 0.0701 | 0.0735 | 0.0549 | 0.0661 | – | –
3 | MGESLFKGPRDYNPISSSICHLTNESDGHTTSLYGIGFGPFIITNKHLFRRNNGTLVVQSLHGVFKVKQTTTLQQHLVDGRDMIIIRMPKDFPPFPQKLKFREPQREERICLVTTNFQTKSMSSMVSDTSCTFPSGDGIFWKHWIQTKDGQCGSPLVSTRDGFIVGIHSASNFTNTNNYFTSVPKNFMELLTNQEAQQWVSGWRLNADSVLWGGHKVFMVKPEEPFQPVKEATQL [D69Q] | 0.0407 | 0.0693 | 0.0631 | – | 0.0905 | 0.0962 | 0.082 | 0.0625 | 0.0541 | 0.0674 | – | 0.0638 | – | 0.061 | 0.0744 | 0.0802 | 0.111 | 0.0549
4 | MGESLFKGPRDYNPISSSICHLTNESDGHTTSLYGIGFGPFIITNKHLFRRNNGTLVVQSLHGVFKVKDTFTLQQHLVDGRDMIIIRMPKDFPPFPQKLKFREPQREERICLVTTNFQTKSMSSMVSDTSCTFPSGDGIFWKHWIQTKDGQCGSPLVSTRDGFIVGIHSASNFTNTNNYFTSVPKNFMELLTNQEAQQWVSGWRLNADSVLWGGHKVFMVKPEEPFQPVKEATQL [T71F] | 0.0668 | 0.067 | 0.0519 | 0.062 | 0.0892 | 0.0878 | 0.0665 | 0.0511 | 0.0467 | 0.0765 | 0.0513 | 0.0591 | – | 0.0554 | 0.0613 | – | 0.0584 | 0.068
